Some of the results follow.

Experimental findings from article PMC12136788 are described below.

First the molecules themselves.
T1: UNK ZnF1-6 (called full-length) (human, UniProt Q9C0B0 30-357)
T1 sequence: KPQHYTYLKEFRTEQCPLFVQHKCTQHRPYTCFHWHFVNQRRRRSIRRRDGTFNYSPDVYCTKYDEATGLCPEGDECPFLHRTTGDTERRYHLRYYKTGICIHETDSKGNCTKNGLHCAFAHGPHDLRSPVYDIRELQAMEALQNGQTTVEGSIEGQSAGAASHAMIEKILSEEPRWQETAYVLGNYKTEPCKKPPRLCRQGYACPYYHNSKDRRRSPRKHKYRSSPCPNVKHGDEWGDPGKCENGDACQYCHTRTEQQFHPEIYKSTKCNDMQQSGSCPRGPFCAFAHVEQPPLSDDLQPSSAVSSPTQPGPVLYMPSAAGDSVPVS

B1: chr15:41900134:41900198:-|3pUTR|ENSG00000103966|msi1_unk|total|mutant (ssRNA)
RNA: GGGAGUUCUACAGUCCGACGAUCAGGGCACCUGGAGGCAGCAAAGAUUAUCUUAUUUAUUUUAUUUUGUUUUCUGCUAUAUUCCGAGUGGCAAAAAAACCGAGCAGAGGGUUUCUGCUGUCUCCAGACUGUCUACCAAAGAGACAACAGAGGAUUGAGCAUCA
B2: chr8:123014585:123014686:-|3pUTR|ENSG00000136986|msi1|total|mutant (ssRNA)
RNA: GGGAGUUCUACAGUCCGACGAUCGCAGCUAACAUGGGUCCGGUUUAAACCAUGGGGGAUGCAACCCCUUUGCGUUUCAUAUGCCGGCCUACUGGCUUUGUGCCGCUGGAGCCGUUGGGUUGCUUUGUGUCCGGAGGAUCCAGACAACAGAGGAUUGAGCAUCA
B3: chr5:171410733:171410822:+|3pUTR|ENSG00000181163|msi1_unk|total|mutant (ssRNA)
RNA: GGGAGUUCUACAGUCCGACGAUCGUUUUUAAAGAUGGAACUCCACCCUUUGCUUGGUUUUAAGUAUGUAUGGAAUGUUAUGACCGGACACCGCCGCCGCGGUGGUCAGACAUGGAAAUGGUGGGGAGACAAAAAUAUACAUGUCAACAGAGGAUUGAGCAUCA
B4: chr7:44573567:44573675:-|CDS|ENSG00000136271|unk|FALSE|unique (ssRNA)
RNA: GGGAGUUCUACAGUCCGACGAUCCGCACGGGCUCCGGGAAGACGGCCGCUUAUGCUAUUCCGAUGCUGCAGCUGUUGCUCCAUAGGAAGGCGGUGGGUAACGAGAGAGCUGAGGGGAGGAAGGAGGCAAGCUCCAAAAGCCUGCAACAGAGGAUUGAGCAUCA
B5: chr1:155884367:155884468:+|3pUTR|ENSG00000132718|msi1|FALSE|unique (ssRNA)
RNA: GGGAGUUCUACAGUCCGACGAUCUGGGUCUACUGAGCAGUGGGUGCUGAGGUGACAGGGGAGGAACCAGUUGUUCUGUAGCCUAGGAACUGCCUCAGUGUCUUUGCCAGAAAAAGGCAAAGAGGCGGACAGUGCAGGGCUCCUCAACAGAGGAUUGAGCAUCA
B6: chr16:11872726:11872856:-|3pUTR|ENSG00000103342|msi1_unk|total|mutant (ssRNA)
RNA: GGGAGUUCUACAGUCCGACGAUCACAUAAUUGCCUACAAUAAUGAAAACCUACAGGAAUUUUUUUAUUUUUCAUUUUCCCCUCCGGCAUAUUCCGUAUUUUUCCCCCAGGCAGAUCAUUCUGAGUGUGCGAGUGUGUGUGCACCAACAGAGGAUUGAGCAUCA
B7: chr13:98915392:98915499:-|CDS|ENSG00000088387|unk|FALSE|unique (ssRNA)
RNA: GGGAGUUCUACAGUCCGACGAUCUCAUUUCAGAACAACAAAGUCAGGCGUUUUGCUUUUGAGCUCAAGAUGCAGGACAAAAGUAGUUAUCUCUUGGCAGCAGACAGUGAAGUGGAAAUGGAAGAAUGGAUCACAAUUCUAAAUCAACAGAGGAUUGAGCAUCA
B8: ENSG00000198589:be:win_3251|CDS|ENSG00000198589|bound_else_gene|NA|bound_elsewhere_windowed (ssRNA)
RNA: GGGAGUUCUACAGUCCGACGAUCCUCCUUCAGAAGAGGAUGCCUCAGAGAUGCCAGAAUUCUUGGAUAAAUCUAUAGUAGAGGAAGAGGAAGAUGAUGAUUAUGUGGAACUGAAAGUAGAAGGCAGUCCUACUGAGGAAGCUACAACAGAGGAUUGAGCAUCA
B9: chr7:6691352:6691453:-|CDS|ENSG00000164631|unk|FALSE|bound_elsewhere (ssRNA)
RNA: GGGAGUUCUACAGUCCGACGAUCUACGAAUGUAAUGAAUGUGGAAAGUUAUUCUCCCAGUUGUCAUACCUCACUAUCCAUCAUAGAACUCAUUCAGGAGUAAAACCCUAUGAAUGUAGUGAAUGUGGGAAAACCUUCUACCAGCAACAGAGGAUUGAGCAUCA
B10: chr12:53253816:53253925:+|CDS|ENSG00000182544|unk|total|mutant (ssRNA)
RNA: GGGAGUUCUACAGUCCGACGAUCUCUCUUCAUGUUGACUUUCUCUACCAGCCCAGGCCAGGAGAGUCCGGUGGAGUCCUUCACCGCCUUUCUACUUAUUGAGUUGGCUUGUGGAUUAUACUUUCCCAGCAUGAGCUUCCUACGCAACAGAGGAUUGAGCAUCA
B11: chr12:24812577:24812678:-|3pUTR|ENSG00000060982|msi1|FALSE|unique (ssRNA)
RNA: GGGAGUUCUACAGUCCGACGAUCAUCCAAAGGAGCUUUUUCCUUAUUCUGUCAAGCAUUGAGAUCUUCUUCAGCUUUCAAUGUAGUUGCUAAAUACAAAUAAUGCUACUAGGUAGUGACUAAAUAUAGCAAACACUUCAUCAGCAACAGAGGAUUGAGCAUCA
B12: chr9:37862824:37862925:+|3pUTR|ENSG00000122741|unk|FALSE|unique (ssRNA)
RNA: GGGAGUUCUACAGUCCGACGAUCUAUGCACUAGCCUUGCCCUCUUAGGUUGCAUUCUCUUUAGGCCACUGGUUCUCAAACAUUAGGGUGCACUGUAACCAUUACAGAGCUUGUGAAAAGUGCAGAAACCUGAGCCUCACCUUACAACAGAGGAUUGAGCAUCA
B13: chr3:151442983:151443884:-|CDS|ENSG00000152580|control|control|control (ssRNA)
RNA: GGGAGUUCUACAGUCCGACGAUCUGGUUCGGAGCGAAGAGUAGUAAUGCUUACAAUGGAAGAGCGAGUGACCAGCCCCAGGAUAGAAGCUGCAUCCCAGAAAAGGACUGAAGUGAAUUUUGGGGACAAAUUACUACUGAACUGCAACAGAGGAUUGAGCAUCA
B14: chr9:128633378:128633479:+|3pUTR|ENSG00000197694|msi1|FALSE|bound_elsewhere (ssRNA)
RNA: GGGAGUUCUACAGUCCGACGAUCCUUGCUGCAUGUCCGCUCCUCUGUGUGCUCUCACUUUCCACUGUAACCUUAAGCCUGCUUAGCUUGGAAUAAGACUUAGGAGAAAAUGGUGCUUCACUAACCCGCUUCCGGUCCAGUCACCAACAGAGGAUUGAGCAUCA
B15: chr15:59081107:59081211:+|CDS|ENSG00000157450|unk|FALSE|unique (ssRNA)
RNA: GGGAGUUCUACAGUCCGACGAUCUUCUCAAAUAUCUUCUCAUGCAACAUCUCAUCCUGUGGCACCCCCACCACCAACUCACUUAGCCAGUACAGCUGCACCAAUCCCUCAGCAUCUUCCUCCUACACACCAGCCAAUUUCGCACAACAGAGGAUUGAGCAUCA
B16: chr9:26904889:26904990:-|3pUTR|ENSG00000137055|msi1|total|mutant (ssRNA)
RNA: GGGAGUUCUACAGUCCGACGAUCAUAAUUUCUUGAUUUGUCAUUUAUAAAUCCUAAAGUAUAUUUGUUUAAUGGCCUAUUUUCCGAUGAAGAAAAAGCCAGUUGGUAAGCUGUGUCCGUCAUGUAUCAGUUCAGACAGACGAGCAACAGAGGAUUGAGCAUCA
B17: chr8:6521177:6521410:-|CDS|ENSG00000091879|control|control|control (ssRNA)
RNA: GGGAGUUCUACAGUCCGACGAUCUCAGCUACAGGUGUUAGUAUCCAAGCAAAAUUCCAUCAUUGAAGAACUAGAAAAAAAAAUAGUGACUGCCACGGUGAAUAAUUCAGUUCUUCAGAAGCAGCAACAUGAUCUCAUGGAGACCAACAGAGGAUUGAGCAUCA
B18: chr12:88196262:88196297:+|3pUTR|ENSG00000139324|msi1_unk|total|mutant (ssRNA)
RNA: GGGAGUUCUACAGUCCGACGAUCUGUAUACUUGUUUUUAACUUUAAAUGUAAUUUUUAAUCAGGUAAAGUUUGACACAUGUACCGCUACAUACACACAUUUUUAAUGGUGCUCAUAUAUACUGUAUUUUUUGUUGUUCCGUUUCAACAGAGGAUUGAGCAUCA
B19: chr14:90848141:90848242:-|3pUTR|ENSG00000100784|unk|total|mutant (ssRNA)
RNA: GGGAGUUCUACAGUCCGACGAUCCGAUAACUGGUACUGCCUUUGAUUAAAGGUGAGCUAUAUGGAGUUAAGCAUUUUUAUACCCGUAACUAUUUAUUGAGAAUUUUCAGAAUUCUACCGCUACUUGUCUUUAACAGUUAUAAGCAACAGAGGAUUGAGCAUCA
B20: chr4:159352722:159352837:+|CDS|ENSG00000109756|unk|total|mutant (ssRNA)
RNA: GGGAGUUCUACAGUCCGACGAUCACUGUGGAUAAUUUUUCAGAUUCUGGUCACAGUGAAAUUUCUUCACGAUCCAGUAUUGUCCGCAAUUCGUCUUUUGACUCAGUGCCAGUCUCACUGCACGAUGAGAGGCGCCAGAGGCAUCAACAGAGGAUUGAGCAUCA
B21: chr2:201645282:201645383:-|CDS|ENSG00000082126|unk|total|mutant (ssRNA)
RNA: GGGAGUUCUACAGUCCGACGAUCUACUAUCCAUAUUUUUCUAUUUCUCCUAAAGGAUGAAGACCUACAAGAGAUGGAAAAUUCCGCCCAAAGAAUGGAAACUCAGUUUGGCCAAUUUUUUGAUCAUGUGAUUGUGAAUGACAGCAACAGAGGAUUGAGCAUCA
B22: chrX:152971868:152971969:+|3pUTR|ENSG00000147394|unk|total|mutant (ssRNA)
RNA: GGGAGUUCUACAGUCCGACGAUCUUCCCUUACAGGUAUGUUGGCAUGUGUUGGAAAAUUUACACAAUCCGGUUUAAAUUCAGCCGGAUGUGAUUUCCGGAUGCUACUGAUCAAAGUGAUAUCUGUGUCUGUUGGAAUCUUGAUCAACAGAGGAUUGAGCAUCA

The experiment addresses T1, UNK ZnF1-6 (called full-length). Nature of the experiment: nsRBNS (natural sequence RNA bind-n-seq); RBNS binding buffer (assumed for nsRBNS): 25 mM Tris pH 7.5, 150 mM KCl, 3 mM MgCl2, 0.01% Triton X-100, 500 ug/ml BSA, 20 U/ml SUPERase-In, 4 C; UNK is unkempt and MSI1 is Musashi-1; names of the RNAs are library labels; protein concentration not given here; high values mean tight binding.
With B1, the binding signal stood at 1.3 enrichment R.

In the case of B2, the binding signal stood at 0.478 enrichment R.

On to B3, for which the binding signal was 0.885 enrichment R.

As for B4, the binding signal stood at 0.771 enrichment R.

On to B5, for which the binding signal is 0.745 enrichment R.

With B6, the binding signal amounted to 1.06 enrichment R.

For B7, the binding signal stood at 0.548 enrichment R.

Take B8: the binding signal worked out at 0.845 enrichment R.

B9: the binding signal is 0.206 enrichment R.

The molecule B10 came in with a binding signal of 0.501 enrichment R.

As for B11, the binding signal came out at 0.559 enrichment R.

On to B12, for which the binding signal came out at 0.503 enrichment R.

As for B13, the binding signal came to 0.733 enrichment R.

Consider B14, for which the binding signal was determined as 0.581 enrichment R.

B15 displayed a binding signal of 1.14 enrichment R.

Molecule B16 yielded a binding signal of 0.378 enrichment R.

With B17, the binding signal turned out to be 0.481 enrichment R.

Molecule B18 showed a binding signal of 0.573 enrichment R.

As to B19, the binding signal amounted to 0.647 enrichment R.

B20: the binding signal was determined as 0.333 enrichment R.

Molecule B21 displayed a binding signal of 0.521 enrichment R.

In turn, B22 showed a binding signal of 0.228 enrichment R.
